# Data: the supplement of paper PMC3334620
# In all, about 33,000 sequences were measured (“E-score (-0.5 to 0.5)”: median about -0.01, highest 2% from about 0.26 on). Some of the results follow.
# Biological target: Ste12 (UniProt P13574)
# Experiment: PBM E-score (8-mer binding enrichment) (E-score (-0.5 to 0.5)); higher = stronger / more preferred TF binding; most listed sequences are background and not binding sites
# Conditions: protein concentration: 200 nM; construct: GST-DNA-binding domain
# Procedure: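 Universal 'all 10-mer' protein binding microarrays (Agilent AMADID 015681) probed with GST-tagged S. cerevisiae TFs (full-length or DBD) made by in vitro transcription/translation (PURExpress), about 100-200 nM. Bound TF was detected with fluorescent anti-GST. Each ungapped 8-mer (which stands for itself and its reverse complement) is scored by the PBM enrichment score (E-score), a modified Wilcoxon-Mann-Whitney statistic from -0.5 to +0.5, computed with the Universal PBM Analysis Suite. Scale: above 0.35 generally sequence-specific binding.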
row,Sequence,PBM E-score
1,AGACATGA,0.0104
2,GGAACTTA,-0.0549
3,CCTAGGAC,-0.136
4,GAGTCAGC,-0.22
5,CCCCTCAC,0.126
6,GCGATGCC,-0.135
7,GTGAGCAA,-0.0818
8,ACAAATCG,0.0871
9,AGCATATG,-0.118
10,ATTGGGGC,0.00708
11,AAGGCCCG,-0.308
12,AAGATAGG,-0.0454
13,ACTGATTC,0.0462
14,GAAATTCA,0.239
15,CACGTGCA,-0.143
16,CTTAGCAA,0.115
17,CCGCAAGC,-0.226
18,GTCGCGAC,0.389
19,AACCTATG,-0.0828
20,CGGTAAGC,-0.0643
21,AGCTTAAA,0.141
22,ATGAGGGC,0.0389
23,GGACCTCA,-0.0507
24,GCTTCAAA,0.134
25,AACGTGCC,0.00592

row,Sequence,PBM E-score
1,AGCTTCTG,-0.0574
2,GGCACTGA,-0.0616
3,CTAACTTC,-0.0517
4,AGAACATC,-0.0976
5,AATGTGCG,0.125
6,ACAAAGGC,-0.103
7,CACCCGCA,-0.028
8,AACAACAT,0.0818
9,GCGCTTAC,-0.198
10,ACTCAAGT,-0.252
11,GGGCTACA,-0.155
12,TGCGGACA,-0.0266
13,AGTGTAGG,0.00693
14,CACAGAGC,0.0587
15,AGATTTTG,0.143
16,GACATAAC,0.178
17,TAAACAAA,0.244
18,CGGCTTGA,0.0654
19,CAACGCCC,0.0507
20,CTTTGGAA,0.0562
21,CGGATATA,0.199
22,CTACAATC,0.184
23,CCGACAGG,-0.0536
24,CAATACAG,-0.115
25,ATCGCGTG,0.0752

row,Sequence,PBM E-score
1,AAATTCGC,0.101
2,CGCTGCTC,-0.167
3,CCTTAATC,-0.00965
4,AGGCTACA,-0.0865
5,ACTCTCAA,0.00648
6,CAGGGCCC,-0.148
7,CGTATTTA,0.244
8,GGCCAGTA,0.143
9,AGATCCCG,0.0252
10,AAGGTTAG,-0.129
11,CGATCAGC,-0.0721
12,CACCTCTA,-0.0795
13,CTGTTAAC,0.146
14,ACTTAAAG,0.0758
15,AATGTTAT,0.265
16,ACCACCCC,0.0858
17,CCTTACCA,-0.00923
18,CCAGCACC,-0.154
19,ATCGATTA,0.0263
20,GCACTACA,-0.231
21,ACGTATCT,-0.116
22,CCAATGCC,-0.125
23,CGTAGCCC,-0.148
24,AATGTTGG,0.145
25,GAAACCGC,0.351

row,Sequence,PBM E-score
1,ATTTAACG,0.132
2,AAGGGCCT,-0.00237
3,AGAGTCGC,-0.0718
4,GAGCGTCC,-0.0691
5,AATGGACG,0.0787
6,TCGGAACA,0.143
7,GGGGCTGA,-0.185
8,ACTCCTAG,-0.132
9,ATGACACC,0.0248
10,AACGGCGA,0.125
11,GGGCATCA,-0.0616
12,CTGATGTC,-0.0261
13,ACTGAACC,-0.0598
14,AGCTCCGC,-0.173
15,AACAAGAC,0.09
16,ACTAACGC,-0.0491
17,CGGTACAC,-0.166
18,GACTGATA,-0.0649
19,ATTCTTCA,0.00905
20,AATGGTGC,-0.0499
21,AGGGGGGA,-0.0599
22,CACTGGGA,-0.147
23,TAGTTCCA,0.0743
24,AATATCTG,0.00966
25,ATTGCTGC,-0.00539

row,Sequence,PBM E-score
1,CAACCCTC,-0.125
2,GGTTAACA,0.25
3,CCCGGCTA,-0.064
4,CGGAGTCA,-0.129
5,AGTATAAC,-0.185
6,CAGGGCCG,-0.107
7,GAATCCCA,0.0202
8,TCGTTCAA,0.0118
9,CTATTAAA,0.219
10,CCTGGCAC,-0.0664
11,AATTAGTG,0.235
12,TATCCCGA,0.0563
13,CAGGTCTC,0.0453
14,ATTGTCCA,0.033
15,AACAATTC,0.124
16,AGGTTTAG,0.0936
17,CAAAAAGC,0.21
18,CGCGCGGC,0.306
19,ATCTTAAC,0.169
20,AGCATTCG,-0.195
21,CTAGAAGC,-0.0402
22,CCAGTAGA,-0.0672
23,ATCATAAC,0.112
24,GGATCTTA,0.0306
25,AGTAGAAC,-0.0785

row,Sequence,PBM E-score
1,ACAGATTA,-0.0787
2,AGGATGCC,-0.203
3,AGAAGCTG,-0.0487
4,ACCTTAGA,-0.118
5,TACAGACA,0.0984
6,CCTTCCGA,-0.115
7,GGTTTTAC,0.00234
8,TGACGACA,0.0522
9,CCCGCGCA,0.0184
10,CCACCGCA,0.0392
11,TACATTCA,0.122
12,GCAGCATA,-0.0208
13,ACGCAAAA,0.0901
14,CCCCTACA,-0.142
15,AGTTTCAT,0.428
16,AACAAAGC,0.294
17,ATCCTCAG,0.0112
18,CGCCTCGA,0.106
19,CATAACCG,0.0365
20,CCCCGGCC,-0.0295
21,ATCTTGTG,-0.07
22,AAGGAAGT,-0.0799
23,ACTCGTCC,-0.109
24,GAGCACAA,-0.0284
25,CATGCGAC,0.145

row,Sequence,PBM E-score
1,CAAATTTA,0.217
2,GCAAGCAA,-0.0907
3,AATTGGAG,-0.0419
4,CCGCCGCC,0.164
5,GAAAAGCA,0.0143
6,CACCAGAC,0.0132
7,CTTCGAAG,-0.063
8,GATCGTGC,0.0893
9,ATGCTTAC,-0.0145
10,AACGGTAG,-0.113
11,GCACTGGC,-0.224
12,ACATTCCC,0.119
13,GACGAAAC,0.222
14,TATTCAAA,0.239
15,AGTGTGGA,-0.172
16,ATTCGACG,0.087
17,ATACCCAC,-0.0583
18,GGTGCGCA,0.232
19,ACTATGGC,-0.0292
20,AGGTTTGC,-0.147
21,ACTTGGAG,-0.0815
22,AGTCGACT,0.186
23,ACAGATGT,-0.0044
24,GCGCGCGA,0.154
25,CCTCTATC,-0.159

row,Sequence,PBM E-score
1,AAGCGGTA,0.0316
2,ACGCGAGG,-0.0654
3,AAGATAAA,0.214
4,AGTGTCAT,0.168
5,AGGACCGA,-0.0176
6,CAGCGTGA,-0.204
7,AGGATTTA,0.103
8,ATGTTTAG,0.214
9,TCTCCCAA,0.102
10,GCTTCACC,-0.188
11,CTCATCAG,0.147
12,CAGTATCA,0.0753
13,ATGCCACG,-0.0606
14,GTCAGCTA,-0.21
15,GTATGGCA,-0.00895
16,ATTAACAG,0.0374
17,ATATTGTG,0.107
18,CAGTTCAC,-0.152
19,AGAGGCAC,-0.183
20,CACACAAA,0.122
21,GTGCGCGA,0.159
22,GCAGTGCA,-0.0828
23,ACCACGGA,-0.116
24,TAACTGAA,0.0993
25,ACTTTTCG,0.241

row,Sequence,PBM E-score
1,TTAGAAAA,0.175
2,CTGAGCTA,-0.264
3,CACTTGTA,0.0115
4,AGGTACGG,-0.229
5,ACAGGCGG,-0.128
6,CAGAGTAG,0.0106
7,ATGACATG,-0.232
8,ACGGCTGG,-0.171
9,CGCTGATA,-0.0639
10,TAAATATA,0.321
11,ACTGGCCT,-0.0483
12,GCTTGGCA,-0.277
13,CTTCGAGA,-0.11
14,GTCAAAAA,0.233
15,AAAGTGAC,-0.00668
16,CCTAGTCA,-0.0514
17,ACGACAAG,0.0764
18,GACAGTCC,-0.183
19,AATATACC,0.212
